The campaign covered roughly 200,000 compounds. About 4,500 (2.2%) were called active. Inconclusive means that the source gave no clear call. Such entries were picked first, then a sample of the others. Calls come from the whole dose curve; as a rule, active = well fitted inhibition curve with a large enough effect; inconclusive = small, poorly fitted or top-dose-only effect, or effect the other way; inactive = flat fitted curve, though single readings scatter. Where the call is inconclusive, the potency comes from a doubtful curve fit.
The compounds below were run against Cruzipain (Trypanosoma cruzi) (UniProt P25779) (assay: qHTS Assay for Promiscuous and Specific Inhibitors of Cruzain (without detergent)). Conditions: purified cruzain, Z-FR-AMC fluorescence, no detergent.
Sequence of UniProt P25779 (P25779 whole entry, looked up): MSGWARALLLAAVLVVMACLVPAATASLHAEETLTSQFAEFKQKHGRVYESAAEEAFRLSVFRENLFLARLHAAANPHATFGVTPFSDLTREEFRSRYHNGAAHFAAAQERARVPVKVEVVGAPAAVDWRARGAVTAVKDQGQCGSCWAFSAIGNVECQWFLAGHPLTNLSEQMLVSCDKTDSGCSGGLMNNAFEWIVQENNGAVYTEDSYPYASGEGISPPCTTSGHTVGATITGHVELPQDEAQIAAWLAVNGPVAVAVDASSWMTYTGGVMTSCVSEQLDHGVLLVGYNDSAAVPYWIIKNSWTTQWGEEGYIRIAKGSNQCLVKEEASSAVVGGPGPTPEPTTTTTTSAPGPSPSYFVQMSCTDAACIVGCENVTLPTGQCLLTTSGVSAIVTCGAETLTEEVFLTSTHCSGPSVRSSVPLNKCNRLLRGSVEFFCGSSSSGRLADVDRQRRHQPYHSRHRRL
Protocol: Cruzain is a cysteine protease from the tropical parasite Trypanosoma cruzi. Dual qHTS experiment was performed against the NCGC compound collection in order to 1) identify novel inhibitors of the enzyme and 2) profile the compound collection for promiscuous inhibitors operating via colloidal aggregation (by performing detergent-free and detergent-containing comparison screens). Cruzain was assayed by the use of fluorogenic coumarin-based substrate Z-FR-AMC: proteolytic cleavage releases AMC, whose fluorescence is measured at 360 nm excitation and 450 nm emission. Purified cruzain was supplied by the labs of Prof. James McKerrow and Brian Shoichet, UC San Francisco.
This assay had 0.00005% Triton X-100 concentration. See also releated assay "qHTS Assay for Promiscuous and Specific Inhibitors of Cruzain (with detergent)" with 0.01% Triton X-100.
See following references for additional details:
Assay Provider: Shoichet, Brian; University of California, San Fancisco
Screening Center PI: Austin, C.P.
Screening Center: NIH Chemical Genomics Center [NCGC]
Buffer: 100 mM Sodium Acetate, pH 5.5, 5 mM DTT, Triton X-100 concentration: 0.01%.
Buffer in columns 3 and 4 as negative control (no enzyme).
Substrate solution: 2 uM final concentration of Z-FR-AMC (catalog number I-1160, Bachem) dispensed throughout the plate.
Enzyme: 1.5 nM Cruzain final concentration in columns 1, 2, 5-48. Column 1 is neutral (100% activity). Column 2 contained titration of covalent inhibitor K11777, starting concentration 1 mM, then 1:2 dilution in duplicate).
Three uL of enzyme or buffer were dispensed to 1536-well Greiner black solid bottom plates. Compounds and controls (23 nL) were transferred via Kalypsys PinTool. The plates were incubated for 15 min at room temperature, and then 1 uL of substrate solution was added to start the reaction. The plates were immediately transferred to and read 4 times every 30 seconds for 2 min on ViewLux High-throughput CCD imager (Perkin-Elmer) using 360 nm excitation and 450 nm emission fluorescence protocol. The fluorescence intensity difference between the third and the first time points (time lapse of 60 seconds) was used to compute reaction progress.
`COC(=O)[C@@]1(Cc2ccc(OC)cc2)[C@H]2c3cc(C(=O)N4CCCC4)n(CCc4c[nH]c5ccc(OC)cc45)c3C[C@H]2CN1C(=O)c1ccccc1` was tested, and the Potency was inconclusive: 39.8 µM [activator, single point].
In the case of `O=C(Cn1cnc2c(nnn2-c2ccccc2)c1=O)N1CCC(Cc2ccccc2)CC1`, the Potency is reported as inconclusive: 31.6 µM [inhibitor, single point].
`CNC(=O)c1cc2c(=O)n3cc(C)ccc3nc2n(C(C)C)c1=N` was tested, and the Potency was inconclusive: 12.6 µM [inhibitor, single point].
With `Cc1nc2c3ccccc3nc(NNC(=O)CCC(=O)N3CCN(c4ccccc4)CC3)n2n1` the Potency was inconclusive: 39.8 µM [activator, single point].
In the case of `CON(c1nc(Cl)nc(N(C)C)n1)S(=O)(=O)c1ccccc1Cl`, the max response, negative = inhibition is reported as inactive: 0.719%.
With `O=C(CSc1ncnc2ccccc12)c1ccc2c(c1)OCCO2` the max response, negative = inhibition was inactive: -5.33%.
`Cc1ccc(C23CC4CC(CC(NC(=O)NC(C)(C)CO)(C4)C2)C3)cc1` was tested, and the Potency was inconclusive: 39.8 µM [activator, single point].
In the case of `CCCc1nc2oc(C(=O)c3ccccc3)c(N)c2c2c1COC(C)(C)C2`, the Potency is reported as inconclusive: 39.8 µM [activator, single point].
In the case of `Cn1c(=O)c(-c2cc(F)cc(F)c2)nc2cnc(Oc3ccccc3)nc21`, the max response, negative = inhibition is reported as inactive: 0.389%.
In the case of `CCOC(=O)c1c(C)oc2nc(C)nc(NC(C)c3ccccc3)c12` (centres undefined), the max response, negative = inhibition is reported as inactive: -7.38%.
With `COc1ccc(CNC(=O)COC(=O)c2cc(-c3cccs3)nc3ccccc23)cc1OC` the Potency was inconclusive: 25.1 µM [activator, single point].
With `COc1ccc(C(=O)CN2C(=O)N(c3cc(C)ccc3C)S(=O)(=O)c3ccccc32)cc1` the Potency was inconclusive: 31.6 µM [inhibitor, single point].
`CCc1ccccc1NC(=O)C1CCN(C2=NS(=O)(=O)C(c3ccc(C)c(C)c3)=C2C)CC1` was tested, and the max response, negative = inhibition was inactive: -11.1%.
With `Cc1ccc(CSc2nc3sc(C)c(C)c3c(=O)n2Cc2ccco2)cc1` the Potency was inconclusive: 20 µM [inhibitor, partial curve].
`CCCCOc1ccc(C(=O)Nc2cc(C)c(OCC(=O)N3CCOCC3)c(C)c2)cc1` was tested, and the Potency was inconclusive: 39.8 µM [activator, single point].
With `Cc1ccc(OCc2ccc(-c3nc(C#N)c(N4CCC(C)CC4)o3)o2)cc1` the Potency was inconclusive: 39.8 µM [inhibitor, single point].
`O=C(NCCCn1ccnc1)c1nn2c(C(F)(F)F)cc(-c3ccc(Br)cc3)nc2c1Cl` was tested, and the max response, negative = inhibition was inactive: -11.2%.
In the case of `COCCNC(=O)c1c(N)n(-c2cccc(C)c2)c2nc3ccccc3nc12`, the Potency is reported as inconclusive: 31.6 µM [activator, partial curve].
With `Cc1ccc(Sc2cc(Cl)nc(N)n2)cc1` the Potency was inconclusive: 39.8 µM [inhibitor, single point].
With `O=C(O)CCCC(=O)Nc1nc(-c2ccc(F)cc2)cs1` the Potency was inconclusive: 39.8 µM [inhibitor, single point].
`COc1ccc(Cn2c(N)c(C(=O)NCc3ccco3)c3nc4ccccc4nc32)cc1` was tested, and the Potency was inconclusive: 31.6 µM [activator, single point].
With `CCOCCCNc1nc2c([nH]1)c(=O)n(C)c(=O)n2C` the max response, negative = inhibition was inactive: -17.4%.
With `O=C(c1ccco1)N1CCN(C(=O)N2c3ccccc3Sc3ccccc32)CC1` the Potency was inconclusive: 39.8 µM [activator, single point].
For `Oc1oc(-c2ccccc2)nc1/C=N/c1nccs1`, the Potency was inconclusive: 25.1 µM [inhibitor, single point].
For `C=C1C(=O)C=C2CN(C(=O)c3ccccc3)[C@@](Cc3ccc(OC)cc3)(C(=O)OC)[C@@H]12`, the max response, negative = inhibition was inactive: 1.24%.
For `Cc1oc(-c2ccc(C(=O)NCc3ccccc3)cc2)nc1CS(=O)(=O)c1ccccc1`, the Potency was inconclusive: 39.8 µM [inhibitor, single point].
In the case of `O=C(NC1CCCC1)c1ccc2c(c1)N(Cc1ccccc1F)C(=O)c1ccccc1S2`, the Potency is reported as inconclusive: 39.8 µM [inhibitor, single point].
In the case of `COc1ccc(-c2cc(=O)n(-c3ccc([N+](=O)[O-])cc3)[nH]2)cc1`, the Potency is reported as inconclusive: 39.8 µM [inhibitor, single point].
In the case of `CC1=C(C(=O)Nc2cccnc2)C(c2ccccc2)n2nc(SCc3ccccc3F)nc2N1` (centres undefined), the max response, negative = inhibition is reported as inactive: 9.61%.
`CC(=O)N/C(=C\c1cccc([N+](=O)[O-])c1)C(=O)NC1CCCCC1` was tested, and the max response, negative = inhibition was inactive: 16.1%.
`CCn1cc(C(=O)NCc2ccccc2Cl)c(=O)c2cc(S(=O)(=O)N3CCCCC3)ccc21` was tested, and the max response, negative = inhibition was inactive: -5.39%.
For `CCCC(=O)O[C@@H]1C[C@@H](C)N(C(=O)c2ccccc2)c2ccc(C)cc21`, the max response, negative = inhibition was inactive: -1.98%.
With `Nc1c(C(=O)NCCC2=CCCCC2)sc2ccc(S(=O)(=O)N3CCCCC3)cc12` the Potency was active: 12.6 µM.
`Cc1ccc(OCCCCn2c(CCNC(=O)C(C)(C)C)nc3ccccc32)cc1` was tested, and the Potency was inconclusive: 25.1 µM [activator, partial curve].
`Cc1ccccc1NC(=O)CN1C(=O)CCn2nc(-c3cccn3C)cc21` was tested, and the Potency was inconclusive: 15.8 µM [activator, single point].
`O=C1/C(=C/c2cccs2)N=C(c2cccs2)N1Nc1ccccc1` was tested, and the Potency was inconclusive: 39.8 µM [inhibitor, single point].
In the case of `O=C(Nc1ccc2nc(-c3ccco3)c(-c3ccco3)nc2c1)N1CCN(c2ccccn2)CC1`, the Potency is reported as active: 2.51 µM.
`CN(C)S(=O)(=O)c1ccc(N2CCCC2)c(C(=O)Nc2nc(-c3cc(F)ccc3F)cs2)c1` was tested, and the Potency was inconclusive: 39.8 µM [inhibitor, single point].
`Cc1ccc(NC(=O)CSc2nc3c(c(=O)[nH]2)CCC3)cc1C` was tested, and the Potency was inconclusive: 39.8 µM [inhibitor, single point].
With `CCc1nnc(SCc2nc(-c3ccc(OC)cc3)oc2C)c2cc3sccc3n12` the Potency was inconclusive: 31.6 µM [inhibitor, single point].
For `COc1cccc(-c2nn(C)c3sc(C(=O)N4CCN(c5cccc(C)c5)C(C)C4)cc23)c1` (centres undefined), the max response, negative = inhibition was inactive: 7.71%.
With `Cc1cc2oc(C(=O)N(Cc3ccccc3)C3CCS(=O)(=O)C3)cc(=O)c2cc1Cl` (centres undefined) the Potency was inconclusive: 39.8 µM [activator, single point].
With `Cc1cc(C)c2c(CN3CCN(C/C=C/c4ccccc4)CC3)cc(=O)oc2c1` the Potency was inconclusive: 39.8 µM [inhibitor, single point].
`O=C(C/C=N/OCc1ccccc1F)c1cnc(-c2ccc(Cl)cc2)s1` was tested, and the Potency was inconclusive: 20 µM [inhibitor, partial curve, poor fit].
`O=C(NC(NC(=O)c1ccccc1)c1ccccc1)c1ccccc1` was tested, and the Potency was inconclusive: 39.8 µM [inhibitor, single point].
For `CCOC(=O)C1CCN(C(=O)Cn2ncc3c([nH]c4ccc(C)cc43)c2=O)CC1`, the max response, negative = inhibition was inactive: 6.4%.
For `CC(=O)N1CCC2(CC1)CN(Cc1ccc(C#N)cc1)C2`, the max response, negative = inhibition was inactive: -9.91%.
In the case of `O=C(Nc1ccc(NC(=O)C23CC4CC(CC(C4)C2)C3)cc1)c1cc(F)c(F)cc1Cl`, the Potency is reported as active: 25.1 µM.
In the case of `CN=C(NC#N)NCCSCc1csc(N=C(N)N)n1`, the Potency is reported as inconclusive: 15.8 µM [inhibitor, partial curve, poor fit].
With `COc1cc(C(=O)N2CCc3c([nH]c4ccccc34)C2c2ccccc2)cc(OC)c1OC` (centres undefined) the Potency was inconclusive: 25.1 µM [activator, single point].
In the case of `CCc1ccc(OCC(=O)NCc2nc(-c3cccc(C)c3)no2)c(Br)c1`, the max response, negative = inhibition is reported as inactive: -2.06%.
For `COc1ccc(NC(=O)Nc2ncn(Cc3cccc(C(F)(F)F)c3)n2)cc1OC`, the Potency was inconclusive: 39.8 µM [activator, single point].
For `COc1ccc(Cn2c(O)c(C=Nc3ccc(O)cc3)c3ccccc3c2=O)cc1`, the Potency was active: 25.1 µM.
In the case of `COC(=O)c1cc(OC)c(OC)cc1NC(=O)c1ccc(C)cc1`, the Potency is reported as inconclusive: 39.8 µM [activator, single point].
In the case of `COc1ccc(N2CCN(C(=O)c3ccc4c(c3)CCN4S(C)(=O)=O)CC2)cc1`, the Potency is reported as inconclusive: 31.6 µM [activator, partial curve].
In the case of `O=C(COc1cccnc1[N+](=O)[O-])N1CCN(S(=O)(=O)c2ccc3ccccc3c2)CC1`, the Potency is reported as inconclusive: 39.8 µM [activator, single point].
With `CCSc1nc2c(c(=O)[nH]c(=O)n2C)n1CC(O)COc1ccc(Cl)cc1` (centres undefined) the max response, negative = inhibition was inactive: 6.09%.
With `CCCN(CCC)c1nc(N)nc(-c2cc(Cl)ccc2OC)n1` the Potency was inconclusive: 31.6 µM [activator, single point].
`CC1(C)C(=O)C2(C(=O)NCc3ccccc3)CCC1C2` (centres undefined) was tested, and the max response, negative = inhibition was inactive: 6.25%.
In the case of `COCCn1nc2cc(C(=O)NCc3cc(C(F)(F)F)cc(C(F)(F)F)c3)ccc2c1OC`, the Potency is reported as inconclusive: 39.8 µM [activator, single point].
With `COc1ccc(Cn2ccc3nc(C)c(C(=O)Nc4ccc(C)c(F)c4)cc3c2=O)cc1` the Potency was inconclusive: 20 µM [activator, partial curve].
`Cc1sc(N/N=C/c2cccs2)nc1-c1ccccc1` was tested, and the Potency was inconclusive: 39.8 µM [inhibitor, single point].
With `CC1CCN(c2oc(-c3cccc4ccccc34)nc2C#N)CC1` the Potency was inconclusive: 31.6 µM [inhibitor, single point].
`O=S(=O)(Cc1ccc(Cl)cc1)c1ccccc1-c1nnc(-c2ccc(Cl)cc2)o1` was tested, and the Potency was inconclusive: 31.6 µM [inhibitor, single point].

— PubChem BioAssay AID1476 (National Center for Advancing Translational Sciences (NCATS), 2009)
Note: nearly all actives have a fitted effect of over 40% in size.
Potency is the fitted concentration of half-maximal effect; tags give direction and shape of the fitted curve.
